Laboratory results from ChEMBL document CHEMBL4888484, “Replenishing the malaria drug discovery pipeline: Screening and hit evaluation of the MMV Hit Generation Library 1 (HGL1) against asexual blood stage Plasmodium falciparum ,using a nano luciferase reporter read-out” (2022).
In all, about 150,000 compounds went through this assay and about 540 (0.36%) showed an effect of 50% or more. The list shows a part of the results.

Each molecule was assayed on Plasmodium falciparum (assay: Primary screen in NF54 nanoGlo assay, in single point, at 2uM, 72h; a lower Z score goes with more inhibition). Conditions: timepoint 72 hour.
Type: functional, Erythrocyte
With CN(Cc1ccc(Cl)s1)C(=O)CN1CCC[C@H](C(=O)O)C1 the “% Inhibition” value was -14% and the Z score was 1.42. O=C1CNC(=O)N1Cc1nc(CCc2ccccc2)nn1-c1ccccc1 was tested, and the “% Inhibition” value was 7% and the Z score was -1.05. In the case of O=c1n(-c2ccccc2)c(=O)n2n1CCC2, the “% Inhibition” value is reported as 2% and the Z score is reported as -0.2. In the case of O=C(NCCc1ccccc1)c1cc2n(n1)C[C@@H](c1ccccc1)OC2, the “% Inhibition” value is reported as 1% and the Z score is reported as -0.18. For CN(Cc1csc(-c2ccccc2)n1)C(=O)c1c[nH]c(=O)[nH]c1=O, the “% Inhibition” value was -1% and the Z score was 0.28. In the case of CCN1CCN(c2nc3nonc3nc2NCc2cccs2)[C@@H](C)C1=O, the “% Inhibition” value is reported as -10% and the Z score is reported as 1.38. In the case of O=C(NCc1ccc(Oc2ccccc2)cn1)[C@H]1CCS(=O)(=O)C1, the “% Inhibition” value is reported as -11% and the Z score is reported as 1.31. In the case of FC1CC2(CCC1NCc1noc3c1CCCC3)OCCO2 (stereo unspecified), the “% Inhibition” value is reported as -3% and the Z score is reported as 0.61. CC1CCC2(CCN(C(=O)c3ccc4cncn4c3)C2)C1 (stereo unspecified) was tested, and the “% Inhibition” value was -9% and the Z score was 0.9. With Nc1ccc2c(-c3ccccc3)c(-c3ccccc3)[nH]c2n1 the “% Inhibition” value was 6% and the Z score was -1.14. With O=C(NCCCOC1CCCC1)[C@H]1CCOc2ccccc2C1 the “% Inhibition” value was -11% and the Z score was 1.2. O=C(NC[C@H]1CCCO1)c1ccc2c(c1)C(=O)N(Cc1ccccc1)C2=O was tested, and the “% Inhibition” value was -7% and the Z score was 1.39. In the case of O=C(Cc1c[nH]c2cc(Cl)ccc12)N1CCCC1, the “% Inhibition” value is reported as -2% and the Z score is reported as 0.33. O=C1NC[C@H]2CN(Cc3c(Cl)cccc3N3CCCC3)CCN12 was tested, and the “% Inhibition” value was -3% and the Z score was 0.27. Cc1cc(CCC(=O)N2CC(N3C(=O)COC3=O)C2)ccc1Cl was tested, and the “% Inhibition” value was -9% and the Z score was 1.06. CN(Cc1cn(C)nn1)CC1(O)CCC1 was tested, and the “% Inhibition” value was 4% and the Z score was -0.56. COCC[C@]1(NC(=O)c2ccc(F)cc2)CCN(S(=O)(=O)c2ccc(C)c(F)c2)C1 was tested, and the “% Inhibition” value was -2% and the Z score was 0.35. With OCCn1nc(C2CCOCC2)nc1-c1ccc([C@@H]2CCCO2)s1 the “% Inhibition” value was 9% and the Z score was -1.23. Cn1c(CN2CCN(c3ccnc4ccccc34)CC2)cc(=O)n(C)c1=O was tested, and the “% Inhibition” value was 17% and the Z score was -2.24. With CC1Cc2cc(F)ccc2C(C)N1C(=O)c1ccc(=O)n(C)n1 (stereo unspecified) the “% Inhibition” value was -45% and the Z score was 5.26. Cc1ccc(C)c(CN(Cc2ccccc2)Cc2nc(C(=O)NCCN(C)C)co2)c1 was tested, and the “% Inhibition” value was -13% and the Z score was 1.6. For CC(=O)c1ccc(C(=O)NC[C@H]2CCCOC2)cc1O, the “% Inhibition” value was 2% and the Z score was -0.27. In the case of CCCN(CC(=O)NC)Cc1cc2ccccc2c(=O)[nH]1, the “% Inhibition” value is reported as 1% and the Z score is reported as -0.1. COc1cccc(CN2CCC[C@@]3(CCN(Cc4cccnc4)C3)C2=O)c1OC was tested, and the “% Inhibition” value was -8% and the Z score was 1.19. For C#CCOC[C@@H](O)CN(CCCOC)Cc1ccccc1, the “% Inhibition” value was -3% and the Z score was 0.49. For Cc1nnc2n1CCN(C(=O)c1ccc(-c3ccccc3F)o1)C2, the “% Inhibition” value was -9% and the Z score was 1.18. COC(=O)COc1cc(-c2ccc(OC)cc2)nc2ccc(NC(=O)c3c(F)cccc3F)cc12 was tested, and the “% Inhibition” value was 20% and the Z score was -2.06. CC1=NN=C(c2ccccc2)[C@H](c2ccc(O)cc2O)N1O was tested, and the “% Inhibition” value was -21% and the Z score was 2.46. For COc1cc(Br)c(NC(=O)N(C)CC(C)C)cc1OC, the “% Inhibition” value was -13% and the Z score was 1.89. In the case of Cc1c(C(=O)NCc2cccs2)sc2ncnc(N(C)C3CCCCC3)c12, the “% Inhibition” value is reported as 4% and the Z score is reported as -0.39. COC(=O)[C@@H]1C[C@@H](N(C)C)CN1C(=O)[C@@]12CC[C@@](C)(OC1=O)C2(C)C was tested, and the “% Inhibition” value was -9% and the Z score was 1.38. N#Cc1ccc(Nc2ccc(N3CCc4sccc4C3)nc2)nc1 was tested, and the “% Inhibition” value was -6% and the Z score was 0.92. In the case of Cc1ccc(NC(=O)c2sccc2S(=O)(=O)N(C)c2ccccc2)cc1Cl, the “% Inhibition” value is reported as -1% and the Z score is reported as 0.08. CC(NCC(CCO)c1ccccc1)c1ncc(-c2ccccc2)o1 (stereo unspecified) was tested, and the “% Inhibition” value was -6% and the Z score was 1.23. With N#Cc1ccnc(NCCc2nccs2)c1 the “% Inhibition” value was -4% and the Z score was 0.61. In the case of COc1ccc(C(=O)Nc2c(C)nc3ncnn3c2O)cc1, the “% Inhibition” value is reported as 45% and the Z score is reported as -5.1. For COCCCC1CCN(C[C@H]2COCCO2)CC1, the “% Inhibition” value was 8% and the Z score was -1.07. For Cc1nc(NS(=O)(=O)c2ccc(F)c(F)c2)n(-c2ccc(C#N)cc2)n1, the “% Inhibition” value was -11% and the Z score was 1.18. With CCc1nccn1C[C@H](C)NC1CCN(C(=O)Nc2ccccc2)CC1 the “% Inhibition” value was 14% and the Z score was -1.81. Cc1cc(NC(N)=O)cc2sc(=O)oc12 was tested, and the “% Inhibition” value was -2% and the Z score was 0.32. Cc1nnccc1C(=O)N[C@](C)(CO)Cc1ccc(Cl)cc1 was tested, and the “% Inhibition” value was 4% and the Z score was -0.48. O=C(c1cccnc1)N1CC(c2nc(C3CC3)no2)C1 was tested, and the “% Inhibition” value was -7% and the Z score was 1.37. In the case of Cn1cc(CCNC(=O)CCCN2CCCC2=O)cn1, the “% Inhibition” value is reported as -19% and the Z score is reported as 3.22. For CC[C@H]1c2cccn2CCN1C(=O)c1csc(C)n1, the “% Inhibition” value was -8% and the Z score was 0.99. In the case of Cc1cc2nc(CS(=O)(=O)c3ccccc3)cc(O)n2n1, the “% Inhibition” value is reported as -6% and the Z score is reported as 0.79. In the case of COc1ccccc1CNC1CC(C)OC1C (stereo unspecified), the “% Inhibition” value is reported as -11% and the Z score is reported as 1.45. In the case of CC(C)n1cc(C(=O)N(C)Cc2ccc3nccnc3c2)cn1, the “% Inhibition” value is reported as -19% and the Z score is reported as 3.56. In the case of COc1ccc(Cn2nc3nc(Nc4ccc(F)c(C)c4)cc(C)n3c2=O)cc1, the “% Inhibition” value is reported as -12% and the Z score is reported as 1.31. For CC(C)(C)c1ccc(-c2ccc(CN3CCN4C(=O)NC(=O)[C@@H]4C3)o2)cc1, the “% Inhibition” value was -7% and the Z score was 1.11. CO[C@H]1C[C@H](C(=O)N(C)C(C)c2ccccc2)N(S(C)(=O)=O)C1 (stereo partly specified) was tested, and the “% Inhibition” value was -6% and the Z score was 0.83. In the case of COc1c(C)ccc(NCc2noc(C3CC3)n2)c1C, the “% Inhibition” value is reported as 0% and the Z score is reported as 0.04. CCOc1cc(NCc2nc(C)sc2C)ncn1 was tested, and the “% Inhibition” value was -8% and the Z score was 0.83. In the case of CNc1ncc(CN(C)C(=O)Cn2cnc3ccccc3c2=O)cn1, the “% Inhibition” value is reported as -5% and the Z score is reported as 0.58. With Cc1ccc(C[C@@H]2C(=O)N(c3ccccc3)c3ccccc32)cc1 the “% Inhibition” value was 0% and the Z score was -0.01. In the case of Cc1ccc(C(=O)N2CCC(c3nc(C)ccc3C(=O)N3CCCC3)CC2)cc1, the “% Inhibition” value is reported as -2% and the Z score is reported as 0.26. In the case of Cc1ccc(-c2cnn(CC(=O)Nc3cc(F)ccc3F)c(=O)n2)cc1, the “% Inhibition” value is reported as 5% and the Z score is reported as -0.57. With Cc1nc(CCNC(=O)c2nn(-c3cccc(C(C)C)c3)cc2O)cs1 the “% Inhibition” value was -16% and the Z score was 2.56. For CCCCCOCC(=O)N[C@@H]1c2ccccc2C[C@H]1O, the “% Inhibition” value was -11% and the Z score was 1.38. In the case of Cc1ccc(NC(=O)Nc2ccc(N3CCN(Cc4ccccc4)CC3)c(C(=O)NC3CCCCC3)c2)cc1, the “% Inhibition” value is reported as 3% and the Z score is reported as -0.58. For Cc1cnc(C)c(-c2cccc(-c3ccn(C[C@H]4CCCN(C)C4)n3)c2)n1, the “% Inhibition” value was -3% and the Z score was 0.53. Cc1cc2n(n1)CCN(Cc1nc(-c3ccco3)no1)C2 was tested, and the “% Inhibition” value was -12% and the Z score was 2.39. COC(=O)c1cc(CNC(=O)[C@H](C)OCC(C)C)ccn1 was tested, and the “% Inhibition” value was -8% and the Z score was 1.3. In the case of CCOC(=O)N1CCC(NC(=O)[C@@H]2CCCO2)CC1, the “% Inhibition” value is reported as 5% and the Z score is reported as -0.44. In the case of O=C(Nc1cncc(Br)c1)NC1CC(F)(F)C1, the “% Inhibition” value is reported as -8% and the Z score is reported as 1.21. For COc1ccc(C(=O)N(C[C@H](O)c2ccccc2)CC(C)(C)C)c(F)c1, the “% Inhibition” value was -7% and the Z score was 0.91. Fc1ccc(F)c(-c2cncc(CN3CCN(Cc4ccccc4)CC3)c2)c1 was tested, and the “% Inhibition” value was -4% and the Z score was 0.46. With C[C@H](NCC(=O)N(C)C)c1cncc(F)c1 the “% Inhibition” value was -10% and the Z score was 1.24. With O=C(N[C@@H]1CCC[C@]12CCCO2)c1cccc(Nc2nccs2)c1 the “% Inhibition” value was -11% and the Z score was 1.45. For Cc1oc(-c2[nH]ncc2C(=O)N2CCCCC2)cc1S(=O)(=O)Nc1ccccc1, the “% Inhibition” value was -14% and the Z score was 1.68. With Fc1cc2ncn(Cc3nc(-c4ccco4)no3)c2cc1F the “% Inhibition” value was -15% and the Z score was 1.3. In the case of c1ccc(C(Nc2nnnn2-c2ccccc2)c2ccccc2)cc1, the “% Inhibition” value is reported as 2% and the Z score is reported as -0.41. CN[C@@H](C)c1ccccc1Br was tested, and the “% Inhibition” value was -11% and the Z score was 1.09. In the case of Cc1nc[nH]c1-c1nccn1Cc1nc2ccccc2s1, the “% Inhibition” value is reported as -14% and the Z score is reported as 2.63. For Cc1noc(C)c1CCn1cnn(C)c1=O, the “% Inhibition” value was -2% and the Z score was 0.24. In the case of COc1ccc2ccccc2c1-c1cn([C@@H](C)c2nnn[nH]2)nn1, the “% Inhibition” value is reported as -15% and the Z score is reported as 2.47. CCc1ccccc1NC(=O)c1c(NC(=O)c2ccccc2Cl)sc(-c2ccccc2)c1C was tested, and the “% Inhibition” value was 11% and the Z score was -1.25. With CC(NCC(c1ccco1)N1CCCC1)c1cnnn1C (stereo unspecified) the “% Inhibition” value was -14% and the Z score was 2.77. Cc1nc([C@@](C)(NCc2ccnc(N(C)C)c2)C2CC2)no1 was tested, and the “% Inhibition” value was -15% and the Z score was 2.32. CC(O)CC1CCCN1CCCc1ccccc1 (stereo unspecified) was tested, and the “% Inhibition” value was -9% and the Z score was 0.84. With COc1c(C(=O)Nc2ccc3c(c2)OCO3)sc2cc(Cl)ccc12 the “% Inhibition” value was -8% and the Z score was 1.44. With COC[C@H](O)CNC(=O)Nc1cc(Cl)c(C)cc1Cl the “% Inhibition” value was -4% and the Z score was 0.69. Cc1oncc1NC(=O)C[C@H](C)c1ccc(F)cc1F was tested, and the “% Inhibition” value was 0% and the Z score was -0.01. In the case of Cc1n[nH]c(C)c1CC(=O)N(C)Cc1nc(C(C)C)no1, the “% Inhibition” value is reported as -4% and the Z score is reported as 0.76. In the case of Cc1ccc(N2CCN(Cc3nc(C(=O)NC[C@H]4CCCO4)co3)CC2)cc1, the “% Inhibition” value is reported as -8% and the Z score is reported as 1.26. With CCC(C(=O)Nc1cccnc1)(C(F)(F)F)C(F)(F)F the “% Inhibition” value was -14% and the Z score was 2.17. In the case of CCOC(=O)Nc1cc(C(=O)OC)ccc1C, the “% Inhibition” value is reported as -10% and the Z score is reported as 1.49. CN(C(=O)[C@@H]1CCCN1C(N)=O)C1CC1 was tested, and the “% Inhibition” value was 7% and the Z score was -0.88. For O=C(Cn1c(=O)n(CCc2cccs2)c(=O)c2sccc21)Nc1ccc(Cl)cc1, the “% Inhibition” value was 13% and the Z score was -1.65.
